According to PubChem BioAssay AID504332 (National Center for Advancing Translational Sciences (NCATS), 2011):
Out of some 350,000 compounds screened, about 31,000 (8.9%) were called active. Inconclusive results, whose numbers are uncertain, are shown with a selection of clear calls. Calls follow the shape of the dose curve; as a rule, active = well fitted inhibition curve with a large enough effect; inconclusive = small, poorly fitted or top-dose-only effect; inactive = no such curve, though single readings can be large or run the other way. Potencies of inconclusive entries are doubtful fits and often do not repeat.

molecular target: Histone-lysine N-methyltransferase EHMT2 (Homo sapiens) (UniProt Q96KQ7); experiment: qHTS Assay for Inhibitors of Histone Lysine Methyltransferase G9a; conditions: G9a H3K9 monomethylation, AlphaScreen, 2 h; activity, negative = inhibition: at 59 µM (top of the series) unless noted; also: nearly all actives have a fitted effect of over 75% in size
UniProt Q96KQ7, sequence (Q96KQ7 whole entry, looked up): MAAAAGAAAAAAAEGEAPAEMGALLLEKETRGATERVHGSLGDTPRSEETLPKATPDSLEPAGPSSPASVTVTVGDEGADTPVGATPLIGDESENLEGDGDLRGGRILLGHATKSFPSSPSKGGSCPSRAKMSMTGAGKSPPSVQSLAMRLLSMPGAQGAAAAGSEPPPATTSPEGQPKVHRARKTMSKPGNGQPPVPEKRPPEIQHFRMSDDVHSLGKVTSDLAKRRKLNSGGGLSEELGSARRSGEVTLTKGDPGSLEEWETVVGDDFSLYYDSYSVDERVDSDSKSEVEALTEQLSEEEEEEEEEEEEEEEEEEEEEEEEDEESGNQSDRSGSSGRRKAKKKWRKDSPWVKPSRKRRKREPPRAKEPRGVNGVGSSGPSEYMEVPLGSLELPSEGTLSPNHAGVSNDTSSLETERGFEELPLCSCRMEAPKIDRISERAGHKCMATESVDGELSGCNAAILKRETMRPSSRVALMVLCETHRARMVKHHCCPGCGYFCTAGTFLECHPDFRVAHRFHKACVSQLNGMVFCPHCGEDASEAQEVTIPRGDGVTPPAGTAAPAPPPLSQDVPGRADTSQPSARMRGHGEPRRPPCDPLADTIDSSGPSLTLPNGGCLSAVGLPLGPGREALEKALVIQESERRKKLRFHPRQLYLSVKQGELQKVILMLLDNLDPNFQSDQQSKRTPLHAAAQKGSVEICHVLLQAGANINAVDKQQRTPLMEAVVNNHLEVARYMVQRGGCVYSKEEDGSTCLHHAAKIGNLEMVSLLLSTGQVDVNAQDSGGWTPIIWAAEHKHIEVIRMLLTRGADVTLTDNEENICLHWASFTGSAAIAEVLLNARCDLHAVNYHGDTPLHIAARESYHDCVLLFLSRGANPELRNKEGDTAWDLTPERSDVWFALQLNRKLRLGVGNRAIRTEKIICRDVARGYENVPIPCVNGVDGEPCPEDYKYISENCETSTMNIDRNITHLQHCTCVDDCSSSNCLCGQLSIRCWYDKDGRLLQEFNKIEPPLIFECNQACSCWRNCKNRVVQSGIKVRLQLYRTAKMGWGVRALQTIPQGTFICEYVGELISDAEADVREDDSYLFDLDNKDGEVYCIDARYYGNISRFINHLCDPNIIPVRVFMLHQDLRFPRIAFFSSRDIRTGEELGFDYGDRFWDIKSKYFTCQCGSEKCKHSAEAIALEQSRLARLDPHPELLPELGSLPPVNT
Method in brief: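 Readings reflect AlphaScreen signal from monomethyl-H3K9 antibody detection. HMT at 20 nM; substrate b-H3K9 500 nM; cofactor SAM 20 uM; 2 h RT reaction; compounds tested as titrations in qHTS with 15 min preincubation.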
% is scaled to controls: 0 for no effect and ±100 for the full control effect; potency is read from the fitted curve at half-maximal effect; tags tell the direction and shape of the fitted curve.

Compound | Potency | activity, negative = inhibition
COCCCNC(=O)C1=CCN(S(=O)(=O)c2ccc(C)cc2)CC1 | active: 35.5 µM | 
NS(=O)(=O)c1cccc(NC(=O)CCSc2ccc(Cl)cc2)c1 | active: 1.41 µM | 
O=S(=O)(c1c(Cl)sc(Cl)c1Br)N1CCCC1 | inactive | 
O=C(O[C@@H]1[C@H](Cc2ccccc2)NS(=O)(=O)[C@H]2C[C@@H]3C=C[C@]12O3)c1ccccc1Br |  | inactive: 6.72% [at 0.501 µM]
CCOC(=O)c1c(C)n(-c2ccccc2)c2ccc(OC(=O)COc3ccc(Cl)cc3)cc12 | inactive | 
COc1ccccc1NC(=O)CN(Cc1ccco1)C(=O)c1ccc(Cl)nc1 | inactive | 
Cc1ccccc1-c1nc(CN2CCC(C(=O)NCc3ccc(F)cc3)CC2)c(C)o1 | inactive | 
Cn1cccc1Cc1nnc(SCC(=O)NCc2ccccc2Cl)n1-c1ccc(F)cc1 | active: 79.4 µM | 
Cc1nc2c(ccc3nc(NC(=O)C4CC4)sc32)s1 | inactive | 
CCOc1ccc(CN2CCNC(=O)C2CC(=O)N(C)CC2CCOCC2)cc1 (stereo not drawn) | inconclusive: 70.8 µM [inhibitor, single point] | 
CCOc1cc(NC(=O)c2ccco2)c(OCC)cc1NC(=O)CCc1ccccc1OC |  | inconclusive: -54.2% [inhibitor]
O=C(OCC(=O)c1ccc(Cl)cc1Cl)c1ccc2c(c1)C(=O)N(c1cccc3ncccc13)C2=O | inactive | 
Cn1c(=O)oc2cc(S(=O)(=O)CCC(=O)N3CCN(c4cccc(Cl)c4)CC3)ccc21 | inactive | 
CC(=O)Nc1sc(N/N=C/c2ccc(C)cc2)nc1-c1ccc(C)cc1 |  | inconclusive: -64.1% [inhibitor] [at 12.7 µM]
N#Cc1nc(COc2ccc(F)cc2)oc1N1CCC(Cc2ccccc2)CC1 |  | inconclusive: -68.7% [inhibitor]
CCCN(CCC)c1ccc(C2N=C(N)Nc3nc4ccccc4n32)cc1 (stereo not drawn) | inconclusive: 17.8 µM [inhibitor, partial curve] | 
C=CCNC(=S)NNC(=O)c1ccc(OCCCC)cc1 | inactive | 
Cn1c(SCc2nnc(-c3ccccc3Br)o2)nc2sc3c(c2c1=O)CCC3 | inactive | 
CCNC(=O)C1CCN(S(=O)(=O)c2ccc3c(c2)CCCN3C(C)=O)CC1 | inactive | 
O=C(CSCc1ccccc1)Nc1cccc(F)c1 | inactive | 
CC(=O)Nc1ccc(-c2ccc(NC(C)=O)c(O)c2)cc1O | inconclusive: 50.1 µM [inhibitor, partial curve] | 
COc1ccc(OC)c(CN2CCN(c3ccccc3OC)CC2)c1 | inconclusive: 3.55 µM [inhibitor, single point] | 
O=c1ccc(NS(=O)(=O)c2ccccc2Cl)cn1Cc1ccc(Cl)c(Cl)c1 | active: 28.2 µM | 
